Laboratory results from paper PMC4242493.
Some of the results follow. The list includes weakly bound sequences.

Target: MaxL homodimer (UniProt P61244)
Experiment: universal protein-binding microarray (PBM)
Settings: PBS-based mixture, 10 nM His-tagged protein dimer, 2% milk, 200 ng/uL BSA, 50 ng/uL salmon testes DNA, 0.02% TX-100; detection with Alexa 488 anti-His …; high values mean tight binding; most listed sequences are background and not binding sites; double strand, one strand shown

Sequence of UniProt P61244 (P61244 whole entry): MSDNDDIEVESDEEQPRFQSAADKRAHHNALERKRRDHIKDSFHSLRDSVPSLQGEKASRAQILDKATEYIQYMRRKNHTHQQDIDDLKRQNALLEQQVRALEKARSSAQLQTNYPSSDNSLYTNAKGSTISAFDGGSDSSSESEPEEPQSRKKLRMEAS

Row | Sequence | binding signal (normalized occupancy)
1 | AGCCGTAA | 0.0698
2 | AATCTGCT | 0.072
3 | CCCCTGTA | 0.0798
4 | ACTTGGCA | 0.0766
5 | TCATAGGA | 0.0813
6 | ATTTCATA | 0.0793
7 | ACGGCCAG | 0.0716
8 | AAAGCCAT | 0.0766
9 | CCAGGGGG | 0.0726
10 | GATCTGCA | 0.0738
11 | ACGATTGC | 0.0766
12 | CGGAAGTA | 0.0707
13 | CAGATCCG | 0.0687
14 | AAAGATCC | 0.0755
15 | CGTTGGGC | 0.0777
16 | ACAACGAA | 0.0723
17 | AAGTCACG | 0.0946
18 | GCTCTACA | 0.0739
19 | TTCACAAA | 0.072
20 | CTCTGTAC | 0.0743
21 | CCTCAACA | 0.0712
22 | CTTATCGA | 0.074
23 | AAGCATAG | 0.0734
24 | CTGGAACC | 0.0728

Row | Sequence | binding signal (normalized occupancy)
25 | ACTACCCG | 0.0715
26 | CCGGCGCG | 0.07
27 | GGCCTGAA | 0.0704
28 | GTGCGTCA | 0.0849
29 | CGGCAGAA | 0.0694
30 | AACTATAA | 0.0826
31 | ATGGTTAC | 0.0806
32 | ACGCATAC | 0.0842
33 | AATCCCGA | 0.0726
34 | AAATGCGC | 0.0749
35 | GCCAAGCA | 0.0719
36 | ATTTCCTA | 0.0796
37 | TAGTTCCA | 0.0748
38 | AAAGAGGT | 0.0678
39 | AAAGCATA | 0.0783
40 | GCGTTTAC | 0.0751
41 | ATCATCAC | 0.0854
42 | AGCACGAG | 0.0964
43 | CTAAGATC | 0.0789
44 | CCCGCCGC | 0.0702
45 | CCGTGCCG | 0.0753
46 | AACAGAAA | 0.0736
47 | ACATGCCG | 0.103
48 | GCTTGCAC | 0.0699

Row | Sequence | binding signal (normalized occupancy)
49 | CCTTTAGC | 0.0691
50 | GAATCCTC | 0.0757
51 | AAGCGTAA | 0.0698
52 | GACCATGC | 0.109
53 | AAGTTCCA | 0.0736
54 | AATCAAAC | 0.0782
55 | AGTACCGA | 0.0717
56 | TGCTGACA | 0.0838
57 | AAATAATA | 0.0784
58 | AGCGGAAA | 0.0723
59 | AATGCGGC | 0.0814
60 | GATCAGGC | 0.0778
61 | AAGCCGAA | 0.0699
62 | CGACTGTC | 0.0718
63 | AACCCCCT | 0.0759
64 | ATCCAGCC | 0.0742
65 | ATCTCGTG | 0.0991
66 | ATCCTAGG | 0.0715
67 | AGAGTATC | 0.0827
68 | CTTGATGA | 0.0755
69 | CCCCGGAG | 0.068
70 | CTCATATA | 0.087
71 | GTAAGCTA | 0.0744
72 | GACCCGGC | 0.0707

Row | Sequence | binding signal (normalized occupancy)
73 | TCTCGGAA | 0.0691
74 | AATGGAAT | 0.0715
75 | AGCATCAC | 0.0771
76 | ACCCGCAG | 0.0663
77 | GAACCACC | 0.077
78 | CCCCCTAC | 0.0773
79 | CGTAACGA | 0.0718
80 | AGTGTGGA | 0.0843
81 | CTCCAGCC | 0.0701
82 | GCTGTGCC | 0.0741
83 | TCCATACA | 0.0868
84 | ACGAAAGC | 0.0763
85 | GGTAATTA | 0.0776
86 | CGTTCGCA | 0.0739
87 | AGCCGTAG | 0.0716
88 | TCTTCAAA | 0.0703
89 | AGCGATAG | 0.0742
90 | CTTCGCAA | 0.0722
91 | GTCTCCAA | 0.0767
92 | CCCCGAAC | 0.0734
93 | AGTGCCAA | 0.0718
94 | AAATTGAT | 0.0763
